Data on 172 sequences can be found in article PMC10668032.

The other results are listed elsewhere or left out. At the low end of the ranking, values are background and their order means little.

The target in the test is SIX1 homeodomain (reference allele) (UniProt Q15475). The experiment in a line: universal protein binding microarray. The settings on record: Universal all-10-mer PBM (8x60K, AMADID 030236), 300 nM GST-tagged protein, Alexa Fluor 488 anti-GST; buffer, salt, pH and temperature not stated; high values mean tight binding; most listed sequences are background and not binding sites; double strand, one strand shown.
Turning to CTTATCAC, the binding signal was determined as 0.0821 E-score.
The same measure for ACATTGAG: -0.157 E-score.
The same measure for ATCTGAAA: 0.0773 E-score.
Consider CCGCTTCA, for which the binding signal was 0.133 E-score.
The same measure for GAATCTGC: 0.0609 E-score; for ACCTTTTG: -0.064 E-score.
The same measure for TAACGAGA: -0.0272 E-score; for CCCCAGCA: 0.0232 E-score.
For the sequence CAACTAGG, the binding signal is -0.119 E-score.
CCACTTAC: the binding signal was 0.056 E-score.
The same measure for CTACTAAG: -0.119 E-score; for ACGGATGG: 0.114 E-score; for ACTTCTCA: -0.00893 E-score.
As to CGAGTACA, the binding signal was 0.0544 E-score.
Consider TCCTGAAA, for which the binding signal is -0.106 E-score.
Take AACCGTCA: the binding signal was -0.0989 E-score.
As for CTCCAAAA, the binding signal was -0.224 E-score.
Next, CCCAACCC: 0.00262 E-score; CCTCACTA: -0.00442 E-score.
Next, TGGCGGAA: -0.149 E-score; CAGGTGAC: -0.0701 E-score.
Next, AGGTAACC: 0.0488 E-score; AAAAGATT: -0.119 E-score.
Turning to AGACCACT, the binding signal was -0.0453 E-score.
For ATTCAGGG, the binding signal worked out at 0.0344 E-score.
The same measure for TCTGAGCA: -0.139 E-score; for AGACGAGC: -0.0872 E-score.
Next, AAAATAGA: 0.127 E-score.
Consider TCCGGTCA, for which the binding signal was -0.0102 E-score.
Regarding CCGGTGAG, the binding signal was -0.0169 E-score.
With TATTCCCA, the binding signal amounted to 0.0336 E-score.
On to CAGCCATG, for which the binding signal is -0.0733 E-score.
Next, CGGAAGCA: -0.101 E-score; GAGCAAAC: -0.141 E-score.
The same measure for AACAGATA: 0.211 E-score.
As to TCGAACAA, the binding signal is -0.0327 E-score.
On to CTTCTACC, for which the binding signal was found to be 0.0973 E-score.
On to AACGATCC, for which the binding signal was found to be 0.333 E-score.
Next, GCGGTAGA: 0.0037 E-score; ATACCCAT: 0.393 E-score.
With ACAGTAAT, the binding signal is -0.0293 E-score.
Consider CGTGCGAA, for which the binding signal was -0.134 E-score.
Take GATCGTTA: the binding signal worked out at 0.198 E-score.
Next, CGGGGGAC: -0.164 E-score.
As for CTAAACGA, the binding signal is -0.0987 E-score.
The same measure for ACCCACAT: 0.0266 E-score.
Next, TGACCAAA: -0.214 E-score; TGAAGGCA: -0.0804 E-score.
Next, CCCTAGAC: -0.0168 E-score; AAGTATAG: -0.016 E-score.
Regarding CGCCAAGC, the binding signal is -0.133 E-score.
The same measure for ATCTGCTG: 0.199 E-score.
The same measure for AACACCTC: 0.218 E-score; for ACGCTAGC: -0.201 E-score; for GGGCGAAA: -0.0965 E-score.
Next, AATATATG: 0.275 E-score; CGTTCACC: -0.158 E-score; CCGTCATC: 0.0912 E-score.
Consider AGTCTCCG, for which the binding signal was -0.121 E-score.
The same measure for CAATGTGG: -0.0168 E-score; for CCCTTAGC: -0.0694 E-score.
CGTTGACA: the binding signal is -0.115 E-score.
Regarding CATAACTC, the binding signal was -0.246 E-score.
For the sequence CATCTTCC, the binding signal was determined as 0.0767 E-score.
For CATGAAGC, the binding signal is -0.253 E-score.
Regarding TAGAGAGA, the binding signal is -0.0286 E-score.
AAATCTAT: the binding signal is -0.0976 E-score.
For the sequence ATGTCTGC, the binding signal was -0.228 E-score.
Next, CGGAGGGA: 0.119 E-score.
Next, ATGAGTTC: -0.0852 E-score; GCTCTTCC: 0.0238 E-score.
The same measure for AGTATCTA: 0.347 E-score; for ATCGTCCA: 0.0525 E-score; for CCGAGAAA: -0.182 E-score.
Take CGACTGGA: the binding signal was determined as 0.0801 E-score.
Regarding CCACTGGG, the binding signal is -0.19 E-score.
The same measure for TCTTCTAA: 0.0479 E-score.
The same measure for CAACCGCA: -0.111 E-score; for AAACGACC: -0.0881 E-score; for GGAGGAAC: -0.241 E-score.
The same measure for AAACCGGG: 0.00689 E-score.
As to ACGGGATA, the binding signal was found to be 0.376 E-score.
With TAATGTGA, the binding signal worked out at 0.079 E-score.
Next, ACGGCGAC: -0.146 E-score.
Next, GCTATAGA: -0.11 E-score; AAAACCCC: -0.0903 E-score; CCTAGAAG: 0.0886 E-score.
On to AGTCTCAA, for which the binding signal was -0.0444 E-score.
The same measure for GGGAGCGA: -0.112 E-score; for CACGAGAG: -0.0634 E-score; for GGGGCTCA: 0.167 E-score.
With CCTACTAG, the binding signal was -0.0519 E-score.
Next, AGGTCTCA: 0.226 E-score.
The same measure for GTCTATCA: 0.00211 E-score; for CTCCGTCA: -0.122 E-score.
The same measure for GGAGTTAC: -0.0523 E-score.
Consider GTAGGGTA, for which the binding signal turned out to be 0.204 E-score.
Next, ACGGGCCC: -0.191 E-score; ACAACCTA: -0.0656 E-score.
The same measure for AGGGCTAT: 0.202 E-score; for AGCTAGAG: -0.111 E-score.
Next, ACCAGCGC: -0.242 E-score; TCATCCAA: 0.128 E-score; ACGAGAGG: -0.03 E-score.
Take AACCTTAA: the binding signal was -0.126 E-score.
ACGCTGCA: the binding signal is -0.189 E-score.
Next, CATCCTAA: 0.0655 E-score; CGCAACTA: -0.12 E-score; AGTCTGGA: -0.13 E-score.
Next, GCATAAGA: 0.046 E-score; GATTACAC: 0.164 E-score.
Next, TGACGGCA: -0.123 E-score; TCGTCAGA: 0.00131 E-score.
On to TCCAGTCA, for which the binding signal was -0.108 E-score.
Next, GCGCGGGA: -0.101 E-score; GAGACGGA: 0.272 E-score.
Turning to TAGGGGAA, the binding signal came to 0.02 E-score.
Next, ATCTCCCG: 0.222 E-score.
For AAGGTGAC, the binding signal stood at 0.0801 E-score.
For the sequence CGTACCGA, the binding signal worked out at 0.0466 E-score.
Next, ACACGCCC: 0.0677 E-score; CCAAACTC: -0.131 E-score.
In the case of AGCTCGGG, the binding signal stood at 0.0533 E-score.
Next, CACCCCGA: 0.26 E-score; ATCAACGG: 0.102 E-score; GCCAAGGA: -0.0931 E-score.
Next, GCATCAGA: 0.127 E-score; AATAAGGA: -0.0537 E-score; GGTGATTA: 0.0864 E-score.
Next, GTCATTCA: -0.14 E-score; ATGATGAG: 0.0283 E-score.
Take ACCTTTTC: the binding signal is -0.125 E-score.
On to CGGAGTAG, for which the binding signal is -0.00732 E-score.
Next, CAGAGGCC: -0.181 E-score.
The same measure for ACGGACGA: -0.163 E-score.
Next, ACCTGTTC: -0.00271 E-score; ACTTAGGC: -0.336 E-score.
For the sequence CCGATGAC, the binding signal is 0.0434 E-score.
Next, TAATCAAA: -0.108 E-score.
With GCATCGGC, the binding signal turned out to be 0.0576 E-score.
Consider GCTTATAC, for which the binding signal is 0.148 E-score.
The same measure for CCTGAGAA: 0.0475 E-score; for GGCGGACA: -0.0814 E-score.
Take CATTAGTC: the binding signal was -0.0573 E-score.
For GTCTTCGA, the binding signal is -0.0922 E-score.
For the sequence AGCTATAT, the binding signal came to 0.2 E-score.
As for ACGCACGA, the binding signal amounted to 0.116 E-score.
Next, GACGATCC: 0.387 E-score.
Regarding GTGGGGAA, the binding signal is -0.0528 E-score.
Next, ATCGCAGC: 0.124 E-score; GCATGTCA: -0.184 E-score.
Turning to CCTGAAGA, the binding signal was -0.168 E-score.
Regarding GCCTCAGC, the binding signal was -0.104 E-score.
Next, ACACCCGC: 0.27 E-score; CGACAGAC: -0.0668 E-score; CTCCGTTC: -0.0381 E-score.
As for CAGCAATC, the binding signal was -0.0328 E-score.
Next, CGGTGGAC: -0.102 E-score; CGTACGTA: -0.0338 E-score.
Turning to GCCTGCCC, the binding signal was -0.0419 E-score.
For the sequence CCCCGGCC, the binding signal was -0.0832 E-score.
As for TGGCACCA, the binding signal is -0.203 E-score.
Next, ACAGATTC: -0.00829 E-score.
Next, CAATCGCG: 0.0369 E-score; AAGGGCCC: -0.244 E-score.
With CAACGTTG, the binding signal is -0.218 E-score.
Take CAATAAAG: the binding signal is -0.00643 E-score.
The same measure for AGGATTAG: 0.108 E-score; for ATACGGTG: 0.328 E-score.
Next, AGTAAGGG: 0.106 E-score.
Take CAGTCACA: the binding signal was determined as 0.0493 E-score.
Next, CCAACGTA: -0.0464 E-score.
